Test results from PubChem BioAssay AID1347165 (National Center for Advancing Translational Sciences (NCATS), 2019).
Hit rate of the full screen: of about 220,000 compounds, about 5,700 (2.6%) were called active. The inconclusive results got no clear call from the source; some entries with a clear call stand among them for comparison. Calls come from the whole dose curve; as a rule, active = well fitted inhibition curve with a large enough effect; inconclusive = small, poorly fitted or top-dose-only effect; inactive = no such curve, though single readings can be large or run the other way. Potencies beside an inconclusive call are fits to weak or partial responses and may not hold up.

target: Lysine-specific demethylase 5B (Homo sapiens) (UniProt Q9UGL1); test: Primary screen for KDM5B Histone Demethylases FDH-coupled qHTS; details: FDH-coupled NADH fluorescence (FDH is formaldehyde dehydrogenase); activity change, negative = inhibition: at 57.7 µM (top of the series) unless noted; note: nearly all actives have a fitted effect of over 70% in size; for activity change, negative = inhibition: 0% is about no effect
Sequence of UniProt Q9UGL1 (Q9UGL1 whole entry, looked up): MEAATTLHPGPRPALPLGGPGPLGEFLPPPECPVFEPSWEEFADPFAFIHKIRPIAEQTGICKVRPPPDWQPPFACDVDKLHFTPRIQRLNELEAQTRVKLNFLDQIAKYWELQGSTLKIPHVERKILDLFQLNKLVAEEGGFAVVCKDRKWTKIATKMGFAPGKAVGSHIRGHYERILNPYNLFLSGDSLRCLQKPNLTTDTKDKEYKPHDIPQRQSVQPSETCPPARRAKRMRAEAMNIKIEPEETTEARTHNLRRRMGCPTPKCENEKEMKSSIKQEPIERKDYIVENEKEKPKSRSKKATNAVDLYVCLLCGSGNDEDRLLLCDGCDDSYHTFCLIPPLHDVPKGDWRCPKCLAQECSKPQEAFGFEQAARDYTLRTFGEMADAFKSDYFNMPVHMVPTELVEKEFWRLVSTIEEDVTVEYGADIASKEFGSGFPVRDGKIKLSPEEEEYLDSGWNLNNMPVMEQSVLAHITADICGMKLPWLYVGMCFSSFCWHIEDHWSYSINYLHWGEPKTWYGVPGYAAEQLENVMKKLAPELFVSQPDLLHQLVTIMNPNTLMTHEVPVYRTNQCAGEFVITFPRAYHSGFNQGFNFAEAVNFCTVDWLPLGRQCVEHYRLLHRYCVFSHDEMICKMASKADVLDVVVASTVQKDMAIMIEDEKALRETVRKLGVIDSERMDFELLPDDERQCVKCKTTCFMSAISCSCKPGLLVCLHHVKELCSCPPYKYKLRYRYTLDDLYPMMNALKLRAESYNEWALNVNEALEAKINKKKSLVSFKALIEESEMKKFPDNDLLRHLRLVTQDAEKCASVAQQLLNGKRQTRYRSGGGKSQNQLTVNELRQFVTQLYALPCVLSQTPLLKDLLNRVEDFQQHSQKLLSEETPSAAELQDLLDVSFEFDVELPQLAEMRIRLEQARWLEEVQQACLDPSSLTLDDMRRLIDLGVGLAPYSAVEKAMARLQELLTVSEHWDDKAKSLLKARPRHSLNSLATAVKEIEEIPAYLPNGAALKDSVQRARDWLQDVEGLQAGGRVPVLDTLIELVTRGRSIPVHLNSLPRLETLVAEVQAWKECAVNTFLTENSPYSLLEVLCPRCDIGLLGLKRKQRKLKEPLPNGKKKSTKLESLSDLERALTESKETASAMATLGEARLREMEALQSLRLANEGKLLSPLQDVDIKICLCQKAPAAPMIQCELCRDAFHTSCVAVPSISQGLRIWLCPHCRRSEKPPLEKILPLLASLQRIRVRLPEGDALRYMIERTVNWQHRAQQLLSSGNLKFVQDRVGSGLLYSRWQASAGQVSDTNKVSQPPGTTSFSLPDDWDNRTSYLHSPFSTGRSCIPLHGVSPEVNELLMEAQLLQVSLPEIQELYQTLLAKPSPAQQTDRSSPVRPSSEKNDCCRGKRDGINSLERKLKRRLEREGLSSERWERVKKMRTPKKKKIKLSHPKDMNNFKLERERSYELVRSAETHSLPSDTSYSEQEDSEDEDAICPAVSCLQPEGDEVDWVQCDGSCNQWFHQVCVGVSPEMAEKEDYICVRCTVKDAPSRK
Summary of the method: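 Here, H3K4me3 peptide (12.5 µM in substrate mix) is demethylated by KDM5BΔAP, 200 nM final, after 10 min compound exposure. Formaldehyde product is coupled through FDH (0.25 U/mL in mix) to NADH fluorescence; 30-min ΔRFU feeds dose-response curves.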
Potency is the fitted concentration of half-maximal effect; tags give direction and shape of the fitted curve.

Compound | Potency | activity change, negative = inhibition
COc1c(/C=N/NC(=O)[C@H]2C[C@@H]2c2ccccc2)c(CCN(C)C(C)=O)cc2c1OCO2 | inactive | –
CS/C(Nc1cc(Cl)ccc1Cl)=C(/C#N)C(=O)c1ccco1 | inconclusive: 39.8 µM [inhibitor, partial curve, poor fit] | –
Cc1c(OC(C(=O)O)c2ccccc2)ccc2c3c(c(=O)oc12)CCC3 (centres undefined) | inconclusive: 31.6 µM [inhibitor, partial curve, poor fit] | –
COc1ccc(N2Cc3cccc(C(=O)Nc4ccc(F)cc4)c3C2=O)cc1 | inconclusive: 17.8 µM [inhibitor, partial curve, poor fit] | –
COc1ccccc1NC(=O)Nc1ccnn1C1CCN(C(=O)CCN)CC1 | inconclusive: 8.91 µM [inhibitor, partial curve] | –
O=C(c1ccc(Cl)cc1)N1CC2(CCCN2Cc2ccccn2)Cc2ccccc21 (centres undefined) | inconclusive: 50.1 µM [inhibitor, partial curve, poor fit] | –
O=C([C@@H]1C[C@H](Oc2ccccc2)CN1C(=O)CCCc1ccccc1)N1CCCC1 | inactive | –
COc1cccc(CNC(=O)C2Cn3cccc3C(=O)N2Cc2ccccc2)c1OC (centres undefined) | inactive | –
CCOCCCN(Cc1ccco1)S(=O)(=O)c1cc2c(cc1C)NC(=O)CO2 | – | inconclusive: -30.1% [inhibitor]
Cc1ccc(O)c(CN2CC[C@@H](c3ccc(F)cc3)[C@H](O)C2)c1 | inactive | –
COc1cccc(S(=O)(=O)c2cc3ccc(OC)cc3oc2=O)c1 | inconclusive: 1.78 µM [inhibitor, partial curve, poor fit] | –
Cc1noc(C)c1-c1cc2cc(CN(C)C)oc2c(NCCc2ccccc2)n1 | inactive | –
Cc1cc(NC(=O)c2cccc(S(=O)(=O)N3CCCCC3)c2)no1 | inconclusive: 25.1 µM [inhibitor, single point] | –
N#Cc1ccc(COC(=O)c2ccc(N3CCOCC3)nc2)c(F)c1 | inactive | –
O=C1NCCCCCCN(C(=O)c2ccco2)[C@H]2C[C@H](C(=O)N3CCN(c4ccccn4)CC3)C[C@@H]12 | active: 25.1 µM | –
COc1ccc(NC(=O)c2cc3c(=O)n(Cc4cccnc4)ccc3nc2C)cc1OC | inactive | –
CCOc1cccc(CNC2CCCCC2)c1 | inactive | –
Cc1nnc2ccc(NCC(C)C)nn12 | inconclusive: 28.2 µM [inhibitor, single point] | –
COc1cc2c(cc1OC)C(COc1cc(C)cc(C)c1)N(C(=O)COc1ccccc1)CC2 (centres undefined) | inconclusive: 25.1 µM [inhibitor, single point] | –
CC(C)n1nc(C(=O)Nc2ccc(F)c(F)c2)c2ccccc2c1=O | inactive | –
COc1cccc(COC(=O)c2ccccc2C(=O)c2ccccc2)c1 | inactive | –
COc1cc(OC)c(OC)cc1CNc1sc2c(c1C(=O)Nc1ccccc1OC)CCC2 | inconclusive: 25.1 µM [inhibitor, partial curve, poor fit] | –
COc1ccc(-c2nc3cc(C)ccc3cc2CN2CCC[C@@H]2CO)cc1OC | inconclusive: 31.6 µM [inhibitor, single point] | –

Compound | Potency | activity change, negative = inhibition
Cc1cccc(CN2CCCC(O)(CN3CCNC(=O)C3(C)C)C2=O)c1 (centres undefined) | inactive | –
Cc1ccc(CCNC(=O)CCS(=O)(=O)c2cc3c(cc2C)NC(=O)CO3)cc1 | inconclusive: 25.1 µM [inhibitor, partial curve, poor fit] | –
CC(C)CC(NC(=O)c1cc2ccccc2s1)C(=O)O (centres undefined) | inactive | –
O=C(NCc1nnc2ccc(-c3ccccc3)nn12)c1ccc[nH]1 | inactive | –
Cc1cc(C)cc(NC(=O)C2=Cc3sc4c(c3CS2)CCCC4)c1 | inactive | –
CN(C)CCCn1c(COc2ccc3cc(Br)ccc3c2)n[nH]c1=S | inactive | –
CCOc1ccc(-n2nc3cc(C)c(NC(=O)c4cc(OCC)c(OCC)c(OCC)c4)cc3n2)cc1 | inconclusive: 44.7 µM [inhibitor, single point] | –
CCOc1ccc(-c2nnc(SCC(=O)NCc3ccccc3)o2)cc1 | inconclusive: 3.55 µM [inhibitor, partial curve, poor fit] | –
Cc1ccc(NC(=O)CN2CCSc3ccc(S(=O)(=O)N4CCCC4)cc32)cc1C | inconclusive: 31.6 µM [inhibitor, partial curve, poor fit] | –
O=C(Cc1c[nH]c2ccccc12)NC(c1ccccc1)c1ccccc1 | inactive | –
COc1cccc(CN2C(=O)CCCCC2C(=O)NCCCN2CCc3ccccc3C2)c1 (centres undefined) | inactive | –
CCNC(=O)NC(=O)CN(CC)c1cccc(C)c1 | inactive | –
CN(C)CCNc1nc2c(c(=O)n(C)c(=O)n2C)n1Cc1ccc(Cl)cc1 | inconclusive: 12.6 µM [inhibitor, partial curve, poor fit] | –
CCC(C)N1CCN(C(=O)CCc2ccc3c(c2)CN(C(=O)NC(C)C)CCO3)CC1 (centres undefined) | inconclusive: 10 µM [inhibitor, partial curve] | –
CCC1CN(C(=O)Nc2ccc(C)c(F)c2)c2ccccc2S1 (centres undefined) | inactive | –
Cc1ccc(-n2ncc(C(=O)N3CCN(c4ccc(Cl)cc4)CC3)c2C2CCN(C(=O)OC(C)(C)C)CC2)c(C)c1 | inactive | –
COc1ccc(-c2nnc(C3CCN(S(=O)(=O)c4ccc(C)c(C)c4)CC3)o2)cc1 | inconclusive: 10 µM [inhibitor, partial curve, poor fit] | –
CCCCn1nc(C(=O)N2CCN(c3ncccn3)CC2)c2ccccc2c1=O | inactive | –
O=C(NCC(F)(F)F)c1cccnc1Nc1cccc(C(F)(F)F)c1 | inactive | –
Cc1ccc2c(n1)N(C)[C@H](CO)CCN(Cc1cnc3ccccc3c1)C2 | inactive | –
COc1ccc(CCNC(=O)CCc2c(C)c3cc4c(C)coc4c(C)c3oc2=O)cc1OC | – | inconclusive: -30.4% [inhibitor]
CCn1cc(-c2ccncc2)cc1C(=O)NCc1cccc(F)c1 | inconclusive: 25.1 µM [inhibitor, single point] | –
O=C1NCc2ccccc2CC12CCN(Cc1ccccc1)CC2 | inconclusive: 44.7 µM [inhibitor, full curve, poor fit] | –

Compound | Potency | activity change, negative = inhibition
CCOC(=O)c1ccc(NC(=O)c2ccc(=O)n(Cc3cccc(C)c3)c2)cc1 | inconclusive: 35.5 µM [inhibitor, single point] | –
O=C(CCCc1c[nH]c2ccccc12)N1CCc2c(nc3cc(-c4ccccc4)[nH]n3c2=O)C1 | inconclusive: 3.55 µM [inhibitor, full curve] | –
Cc1cc(Cl)ccc1OCC(=O)N(Cc1ccco1)Cc1ccco1 | inconclusive: 15.8 µM [inhibitor, partial curve, poor fit] | –
COc1ccc(-c2cn3cccnc3n2)cc1NC(=O)c1cc(C)cc(C)c1 | inconclusive: 15.8 µM [inhibitor, partial curve, poor fit] | –
NS(=O)(=O)c1cccc(NC(=O)c2cc(-c3cccs3)nc3ccccc23)c1 | inconclusive: 28.2 µM [inhibitor, partial curve, poor fit] | –
CCCN1C(=O)CCc2cc(NC(=O)NCCCOCC)ccc21 | inconclusive: 22.4 µM [inhibitor, single point] | –
CCC(=O)Nc1ccc2c(ccn2CCN2CCOCC2)c1 | inactive | –
CCN(C(=O)Cn1cnc2sc(C)c(S(=O)(=O)N3CCN(c4ncccn4)CC3)c2c1=O)c1ccccc1F | inconclusive: 28.2 µM [inhibitor, partial curve, poor fit] | –
CCCC(=O)N1Cc2ccccc2CC2(CCCN(Cc3ccccc3)C2)C1 (centres undefined) | inactive | –
Cc1ccc(CN2CCOCCNC(=O)[C@H]3CCCC[C@H]32)s1 | inconclusive: 35.5 µM [inhibitor, single point] | –
O=C(c1nc2sccn2c1Br)N1CCN(c2ncccn2)CC1 | inconclusive: 7.94 µM [inhibitor, full curve] | –
CCOc1ccccc1C(=O)NC1CCN(c2cc(-c3cccs3)[nH]n2)C1 (centres undefined) | inconclusive: 10 µM [inhibitor, partial curve] | –
N#Cc1ccc(S(=O)(=O)N2CC[C@H]3C(=O)NCCCCCCN(Cc4ccncc4)[C@@H]3C2)cc1 | inconclusive: 35.5 µM [inhibitor, single point] | –
CN(C)C[C@@H]1CN(Cc2ccccc2)C[C@H]1NC(=O)NCc1ccco1 | inconclusive: 14.1 µM [inhibitor, partial curve, poor fit] | –
COc1cccc(N(CC(=O)Nc2ccc(C(N)=O)cc2)S(=O)(=O)c2ccccc2)c1 | inactive | –
O=C(O)c1ccc(-c2nc(-c3ccccc3)c(-c3cccs3)[nH]2)cc1 | inconclusive: 28.2 µM [inhibitor, partial curve, poor fit] | –
CCC(C)NC(=O)C1=CC(c2ccc3c(c2)OCO3)=NS(=O)(=O)N1C (centres undefined) | inconclusive: 35.5 µM [inhibitor, single point] | –
O=C(c1cccc(Br)c1)N1CCN(c2cc(-c3cccs3)[nH]n2)CC1 | inconclusive: 28.2 µM [inhibitor, partial curve] | –
COc1ccccc1CNC(=O)c1ccc2noc(-c3ccccc3)c2c1 | inactive | –
O=C([C@@H]1C[C@H](c2ccc(F)cc2)N([S+](=O)([O-])C2CC2)C1)N1CCN(c2ccccn2)CC1 | active: 20 µM | –
CCn1c(=O)c(-c2noc(C(=O)N3CCC(c4ccccc4)C3)n2)nn(-c2ccc(C)cc2)c1=O (centres undefined) | inactive | –
N#Cc1ccccc1CN1CCCCCNC(=O)[C@@H]2CCC[C@@H]21 | inconclusive: 20 µM [inhibitor, partial curve, poor fit] | –
Cc1cc(/C=C(/CCCC(=O)O)c2nc3ccccc3s2)cc(C)c1O | inconclusive: 39.8 µM [inhibitor, single point] | –
